The values below come from the supplement of paper PMC7726561.

First the molecules themselves.
B1: unnamed (peptide)
chain: LLYQGPHNTL
B2: unnamed (peptide)
chain: LQLDKEFQL
B3: unnamed (peptide)
chain: TLFPVRLLV
B4: unnamed (peptide)
chain: ILANDGVLLAA
B5: unnamed (peptide)
chain: KLLDPSTPVHI
B6: unnamed (peptide)
chain: NVIERLQEA
B7: unnamed (peptide)
chain: YPSEFATYL
B8: unnamed (peptide)
chain: KVFSAFITV
B9: unnamed (peptide)
chain: YLPEDFIRV
B10: unnamed (peptide)
chain: GVIDGHIYAV
B11: unnamed (peptide)
chain: GLIEDHFDVTV
B12: unnamed (peptide)
chain: KLGEILANL
B13: unnamed (peptide)
chain: ALFPGDVDRL
B14: unnamed (peptide)
chain: KLLDLSDSTSV
B15: unnamed (peptide)
chain: TIAEVGKWLQA
B16: unnamed (peptide)
chain: YLDIKGLLDV
B17: unnamed (peptide)
chain: TLVDFPLHL
B18: unnamed (peptide)
chain: VVDAVVTQV
B19: unnamed (peptide)
chain: RLAAFYSQV
B20: unnamed (peptide)
chain: FLLDGFPRTV
B21: unnamed (peptide)
chain: RLYPEGLAQL
B22: unnamed (peptide)
chain: FLAELPGSLSL
B23: unnamed (peptide)
chain: AIQEQITRV
B24: unnamed (peptide)
chain: FLSDSSVRI
B25: unnamed (peptide)
chain: VMGKIFAV
B26: unnamed (peptide)
chain: FLSQRETLL
B27: unnamed (peptide)
chain: RLTDYVAFL
B28: unnamed (peptide)
chain: FLHDNMVEI
B29: unnamed (peptide)
chain: GLKNGVPAV
B30: unnamed (peptide)
chain: AALDFKLAAA
B31: unnamed (peptide)
chain: NLDPAVHEV
B32: unnamed (peptide)
chain: SQWEDIHVV
B33: unnamed (peptide)
chain: ALNPADITV
B34: unnamed (peptide)
chain: IMDDKSLNI
B35: unnamed (peptide)
chain: KLLDVVHPA
B36: unnamed (peptide)
chain: TIAEGLTLAQV
B37: unnamed (peptide)
chain: SLAARAIAV
B38: unnamed (peptide)
chain: FLQEEPGQLL
B39: unnamed (peptide)
chain: TLWEIAKAEV
B40: unnamed (peptide)
chain: ALMYESEKV
B41: unnamed (peptide)
chain: ALIEDEHNL
B42: unnamed (peptide)
chain: KVLEPSETLVV
B43: unnamed (peptide)
chain: IIADMDKWTV
B44: unnamed (peptide)
chain: YIQDVYWNV
B45: unnamed (peptide)
chain: KLPEKWESV
B46: unnamed (peptide)
chain: YLSEDVFQHAV
B47: unnamed (peptide)
chain: SSVEVRSDWEV
B48: unnamed (peptide)
chain: HLLGEGAFAQV
B49: unnamed (peptide)
chain: IMAQLPQEQKA
B50: unnamed (peptide)
chain: RVIGTLEEV
B51: unnamed (peptide)
chain: GLQEYVEAV
B52: unnamed (peptide)
chain: FMLPDPQNI
B53: unnamed (peptide)
chain: LLYDGKLSSA
B54: unnamed (peptide)
chain: YVFPGVTRL
B55: unnamed (peptide)
chain: TLFPGKVHSL
B56: unnamed (peptide)
chain: ALNELLQHV

Over roughly 1,100 sequences, “thermal melting temperature (Tm) of peptide-HLA complex” has its median near 58; the lowest 2% begin near 42. The list shows a part of the results.
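Also: cell lysates heated 10 min at 37–73 °C, remaining pHLA pulled down with pan-class I antibody, peptides quantified by DIA-MS versus 37 °C, Tm where half the complex is lost.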

For this assay, the target named is HLA-A*02:01. Briefly: thermal melting temperature (Tm) of peptide-HLA complex; higher = more thermostable pHLA complex. The conditions noted are these: C1R-A*02:01.
B1 displayed a thermal melting temperature of 59.8 °C. Then B2, with 58.8 °C. As for B3, the thermal melting temperature amounted to 55.8 °C.

The sequence B4 returned a thermal melting temperature of 59.6 °C. Under B5 stands 49.7 °C; under B6, 57.2 °C; under B7, 56.5 °C. Under B8 stands 56.9 °C; under B9, 61.4 °C. Regarding B10, the thermal melting temperature is 61.7 °C. The sequence B11 returned a thermal melting temperature of 61.6 °C.

With B12, the thermal melting temperature was found to be 57.1 °C. Under B13 stands 54.3 °C; under B14, 58.9 °C. Sequence B15 displayed a thermal melting temperature of 57.3 °C.

Regarding B16, the thermal melting temperature turned out to be 56 °C. Under B17 stands 58.2 °C; under B18, 54.5 °C. Then B19, with 54.9 °C; and B20, with 62.8 °C. Consider B21, for which the thermal melting temperature was determined as 56.9 °C. With B22, the thermal melting temperature turned out to be 49.3 °C. Under B23 stands 47.9 °C; under B24, 47.3 °C; under B25, 60 °C. B26 displayed a thermal melting temperature of 61.2 °C. Under B27 stands 63.4 °C; under B28, 60.6 °C.

Turning to B29, the thermal melting temperature was 56 °C.

B30 showed a thermal melting temperature of 46.4 °C. For the sequence B31, the thermal melting temperature is 55.3 °C.

Turning to B32, the thermal melting temperature is 58.3 °C. On to B33, for which the thermal melting temperature came to 58.7 °C.

Take B34: the thermal melting temperature worked out at 44.9 °C.

In turn, B35 registered a thermal melting temperature of 62.3 °C. As for B36, the thermal melting temperature was 55.6 °C.

As to B37, the thermal melting temperature was 57.9 °C. Then B38, with 57.5 °C; and B39, with 63.8 °C; and B40, with 51.7 °C. B41 yielded a thermal melting temperature of 45.2 °C.

The sequence B42 registered a thermal melting temperature of 56 °C. Then B43, with 54.6 °C; and B44, with 55.6 °C; and B45, with 59.9 °C. Under B46 stands 54.8 °C; under B47, 42.6 °C; under B48, 58.8 °C. Then B49, with 56.3 °C; and B50, with 57.6 °C. In turn, B51 yielded a thermal melting temperature of 64.2 °C. Then B52, with 53.5 °C; and B53, with 59.4 °C. Take B54: the thermal melting temperature stood at 57.6 °C. Under B55 stands 55.8 °C; under B56, 60 °C.
